From PMC4336329 (PLoS ONE, 2015)
In all, about 310,000 compounds went through this assay and about 2,200 (0.71%) showed an effect of 50% or more. The effect is printed as a negative number. The list shows a part of the results.

Each molecule was assayed against human ether-à-go-go-related gene (hERG) potassium channel (human, UniProt Q12809) (assay: primary screen, population patch clamp on CHO cells stably expressing hERG).
human ether-à-go-go-related gene (hERG) potassium channel, sequence (Q12809 whole entry, looked up): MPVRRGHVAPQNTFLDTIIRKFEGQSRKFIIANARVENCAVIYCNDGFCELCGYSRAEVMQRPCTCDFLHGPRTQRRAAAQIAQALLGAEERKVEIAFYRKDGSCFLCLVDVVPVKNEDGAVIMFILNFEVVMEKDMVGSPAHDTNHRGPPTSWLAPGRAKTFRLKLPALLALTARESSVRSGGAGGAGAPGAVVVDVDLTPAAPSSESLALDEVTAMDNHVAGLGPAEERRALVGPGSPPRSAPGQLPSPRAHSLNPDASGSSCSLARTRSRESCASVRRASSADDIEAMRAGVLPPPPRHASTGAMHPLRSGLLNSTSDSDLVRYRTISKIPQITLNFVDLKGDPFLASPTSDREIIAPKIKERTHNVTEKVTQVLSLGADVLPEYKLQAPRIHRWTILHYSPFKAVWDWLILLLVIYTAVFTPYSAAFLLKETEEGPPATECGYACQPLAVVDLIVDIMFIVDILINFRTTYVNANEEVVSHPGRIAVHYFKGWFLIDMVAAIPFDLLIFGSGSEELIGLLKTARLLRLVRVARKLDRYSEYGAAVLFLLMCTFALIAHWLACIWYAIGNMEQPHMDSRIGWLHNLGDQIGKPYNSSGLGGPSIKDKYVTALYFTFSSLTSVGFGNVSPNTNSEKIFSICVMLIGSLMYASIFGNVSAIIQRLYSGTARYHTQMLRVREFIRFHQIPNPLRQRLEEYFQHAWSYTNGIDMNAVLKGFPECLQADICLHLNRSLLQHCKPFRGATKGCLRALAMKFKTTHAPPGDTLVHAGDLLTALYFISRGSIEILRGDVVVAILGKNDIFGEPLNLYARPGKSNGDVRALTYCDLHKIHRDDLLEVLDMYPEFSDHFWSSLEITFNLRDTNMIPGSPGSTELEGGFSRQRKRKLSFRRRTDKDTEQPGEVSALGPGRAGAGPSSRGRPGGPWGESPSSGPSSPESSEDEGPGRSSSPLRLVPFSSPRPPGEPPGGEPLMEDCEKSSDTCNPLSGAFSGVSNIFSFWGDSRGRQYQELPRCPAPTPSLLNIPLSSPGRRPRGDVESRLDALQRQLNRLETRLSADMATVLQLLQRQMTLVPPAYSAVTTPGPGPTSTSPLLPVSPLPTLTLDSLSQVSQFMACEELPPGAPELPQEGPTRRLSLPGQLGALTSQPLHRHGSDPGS

Structure (SMILES) | hERG current change (%, negative = inhibition) at 1uM [%]
Fc1cnc(N2CCc3ccccc32)nc1N1CCc2ccccc21 | 11.7
CC(C)C(=O)Nc1ccc([N+](=O)[O-])cc1Br | 12.6
CCN1CCN(S(=O)(=O)c2ccc(Cl)c(C(=O)NC3CC3)c2)CC1 | 3.89
CC(=O)Nc1ccc(-c2nc(C)c(C(C)=O)n2O)cc1 | -1.97
CN(C)c1ccc(C(=O)N/N=C/c2cc(Br)cc(Br)c2O)cc1 | 14.5
Cc1ccccc1OCCCc1c(C)n[nH]c1C.Cl | 11.1
Cc1ccc2cc(CCNC(=O)c3ccc4c(c3)OCO4)c(=O)[nH]c2c1 | 4.67
O=C(c1ccco1)N1CCN(C(=O)c2ccc(Cn3cc(Br)cn3)o2)CC1 | -0.52
COc1ccc2c(c1)CCc1c-2nc2ccccc2c1N1CCOCC1 | 4.97
O=C(NN1C(=O)c2ccccc2NC1c1ccoc1)c1ccc([N+](=O)[O-])cc1 (stereo not drawn) | -3.73
CC(C)NC(=O)C(C)n1cccc1C(=O)c1ccccc1 (stereo not drawn) | 6.45
COc1ccccc1C1Nc2cccc3cccc(c23)N1 | -4.5
COc1ccccc1C(=O)CSc1nnc(-c2ccco2)o1 | 9.29
CC(C)NC(=O)CSCc1cccc(Br)c1 | 13.1
Nc1cc2c(cc1C(=O)c1ccccc1F)OCCO2 | -0.126
CC(C)COc1ccc(C(=O)OCCN2CCOCC2)c(O)c1.Cl | 3.74
COCCCNC(=O)c1cc(C)nn1-c1ccccc1 | 2.21
O=C(Nc1ccc(Nc2ccccc2)cc1)C(Cl)Cl | -3.64
O=C(CSc1nnc(CCc2ccccc2)n1-c1ccc(Cl)cc1)NCc1ccccc1 | 12.2
O=C(CSc1nnc(Cc2ccccc2)o1)N1CCCc2ccccc21 | 8.72

Structure (SMILES) | hERG current change (%, negative = inhibition) at 1uM [%]
C=CCNC(=O)c1ccccc1CCc1ccccc1 | 10.1
COc1ccc2c(c1)CCc1sc(NC(=O)c3ccco3)nc1-2 | 16.7
COC(=O)Oc1cncc(C(=O)O)c1 | 14.2
O=S(=O)(NC1CCN(Cc2ccccc2)CC1)c1cccc(S(=O)(=O)N2CCOCC2)c1 | -6.86
COc1ccc(CCNC(=O)COc2cccc3c2OC(C)(C)C3)cc1OC | 15.7
O=C1Cc2ccccc2C(=O)N1c1cccc(Cl)c1 | 16.6
O=C(CSc1ccccc1F)OCC(=O)N1CCN(C(=O)c2ccco2)CC1 | 3.26
CCCCOc1ccc(C(=O)NCCc2cccs2)cc1 | 9.49
COc1ccc(S(=O)(=O)NCc2ccc(C(=O)NCCCN3CCCC(C)C3)cc2)cc1 (stereo not drawn) | 13.9
C=C(C(=O)c1ccccc1)C(CC(=O)c1ccccc1)c1ccccc1 (stereo not drawn) | 10.8
CC(C)COc1ccc(C(=O)Nc2ncn[nH]2)cc1 | 16.5
COc1ccc(C2C(C(C)=O)=C(C)Nc3ncnn32)cc1OC (stereo not drawn) | 8.18
CC(C)CCCC(C)NS(=O)(=O)Cc1ccccc1 (stereo not drawn) | 10.2
CCOc1ccc(C(=O)NC2=NCCS2)cc1 | 2.56
COc1cccc(/C=C/C(=O)OCC(=O)c2c(N)n(C)c(=O)n(C)c2=O)c1 | 16.6
CC(C(=O)O)N1C(=O)CSc2ncccc21 (stereo not drawn) | 11.4
Cc1ccc(/C=C(\NC(=O)c2ccccc2)C(=O)NCCN2CCOCC2)o1 | 1.36
COC(=O)c1sc(OC)cc1OCc1ccc(C)cc1 | 8.3
Nc1ccc2nc(SCC(=O)N3CCOCC3)sc2c1 | 15.6
O=C(NCCc1ccccc1)C1CCN(S(=O)(=O)N2CCC3(CC2)OCCO3)CC1 | 4.05

Structure (SMILES) | hERG current change (%, negative = inhibition) at 1uM [%]
O=C(CCNS(=O)(=O)c1ccccc1)N1CCN(c2ccccc2)CC1 | 1.83
CCCNC(=O)CC(NS(=O)(=O)c1ccc(OC)cc1)c1ccco1 (stereo not drawn) | 2.46
COc1ccc(C(=O)NNC(=O)c2ccncc2)cc1 | -0.999
O=C(CNS(=O)(=O)c1ccc(F)c(Cl)c1)N1CCCC1 | 1.18
Cc1[nH]c2ccc(C(=O)N3CCN(c4cccc(Cl)c4)CC3)cc2c1C | 26.6
O=[N+]([O-])c1ccc(S(=O)(=O)Nc2ccncc2)cc1 | 11.6
COc1cccc(NC(=O)c2cc([N+](=O)[O-])ccc2NCc2cccnc2)c1 | 5.13
CCN(CC)CCn1cnc2c1c(=O)[nH]c(=O)n2Cc1ccccc1.Cl | 13.4
O=S(=O)(c1ccc(NC(=S)NC2CC2)cc1)N1CCOCC1 | 11.2
Cc1ccc(NC2CCCN(C(=O)CCn3nccc3C)C2)cc1C (stereo not drawn) | 8.02
CCC(=O)Nc1nnc(S(=O)(=O)N(C)Cc2ccco2)s1 | 11.9
Cc1ccc(OCC(=O)Nc2cccc(-c3nnc(-c4ccccc4)o3)c2)cc1 | 12.6
CCOC(=O)c1c(NC(=O)c2ccn(CC)n2)sc2c1CCCC2 | 1.07
O=S(=O)(/C=C/c1ccccc1)Nc1cccc(S(=O)(=O)NC2=NCCC2)c1 | 3.21
S=C(Nc1ccccc1)Nc1ccc(OCc2ccc(Cl)cc2Cl)cc1 | 13.9
COC(=O)c1ccc(-n2c(C)cc(C(=O)CCl)c2C)cc1 | 21.8
COc1ccc(CCNC(=O)c2sc3nc4n(c(=O)c3c2C)CCC4)cc1 | 12.3
Cn1c(C(=O)NCCCN2CCCCC2)cc2sccc21 | -13.7
CCCn1c(=O)[nH]c(=O)c2[nH]cnc21 | 12.4
O=C(CSc1ccc(-c2ccc3c(c2)OCO3)nn1)Nc1nccs1 | 9.09
